About 220 (0.56%) of roughly 39,000 compounds showed activity. Some of the results follow.

We go through 17 molecules from the supplement of paper PMC9446081.
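Further: static incubation at 37 °C against the wild-type strain, values averaged over two biological replicates.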

The assay has as its system Escherichia coli K-12 BW25113. Kind of assay: relative growth (OD600 normalised to plate interquartile mean) (fraction); higher = less growth inhibition, active = 0.2 or less. Conditions: 50 µM; LB; incubation time: overnight (16-24 h).
Take `C[C@@H]1CN([C@H](C)CO)C(=O)c2cc(NC(=O)C3CCCCC3)ccc2O[C@@H](C)CCCCO[C@@H]1CN(C)S(=O)(=O)c1ccc(F)cc1`: the relative growth was inactive: 0.94.
For `C[C@H]1CN([C@@H](C)CO)C(=O)c2cc(NC(=O)CCC(F)(F)F)ccc2O[C@@H]1CN(C)C(=O)Nc1cccc2ccccc12`, the relative growth is inactive: 1.02.
As for `C[C@@H]1CN([C@H](C)CO)S(=O)(=O)c2ccc(Br)cc2O[C@@H]1CN(C)C(=O)CN1CCOCC1`, the figure is inactive: 0.886; as for `C[C@@H]1CN([C@@H](C)CO)C(=O)Cc2cc(NS(C)(=O)=O)ccc2O[C@@H]1CN(C)S(=O)(=O)c1cccs1`, inactive: 0.979; as for `CN(C)CCCNC(=O)C[C@@H]1CC[C@@H]2[C@H](COc3ccc(NC(=O)c4ccccc4F)cc3C(=O)N2C)O1`, inactive: 1.02.
As for `NCC(=O)NCC(=O)O`, the relative growth was inactive: 1.01.
The figure for `C[C@H](CO)N1C[C@H](C)[C@@H](CN(C)Cc2ccc(Cl)c(Cl)c2)Oc2ccc(NC(=O)Cc3cn(C)c4ccccc34)cc2CC1=O` is inactive: 1.03; for `COc1ccc(NC(=O)N(C)C[C@@H]2OCc3cn(nn3)CCCC(=O)N([C@H](C)CO)C[C@H]2C)c(OC)c1` it is inactive: 0.995; for `COc1ccc(Br)cc1S(=O)(=O)NC(=O)/C=C/c1ccccc1Cc1ccc2ccccc2c1` it is inactive: 0.987.
In the case of `Cc1c(C(=O)NN2CCCCC2)nn(-c2ccc(Cl)cc2Cl)c1-c1ccc(I)cc1`, the relative growth is inactive: 1.
The figure for `COc1ccc(NC(=O)Nc2ccc3c(c2)C(=O)N([C@H](C)CO)C[C@H](C)[C@@H](CN(C)Cc2ccc4c(c2)OCO4)OCCCC[C@H](C)O3)cc1` is inactive: 0.991; for `CCc1nc2ccc(C(=O)NCCCN3CCCC3=O)cn2c1N(CC)C(=O)NCCc1ccccc1` it is inactive: 0.98; for `O=C(O)c1cc(-c2ccccc2)nc2ccccc12` it is inactive: 1.11.
For `C[C@@H]1CCCCO[C@@H](CN(C)C(=O)C2CCCCC2)[C@@H](C)CN([C@@H](C)CO)C(=O)c2cc(NC(=O)Nc3ccc(C(F)(F)F)cc3)ccc2O1`, the relative growth is inactive: 1.02.
Take `CC(C)CC#Cc1cnc2c(c1)C(=O)N([C@H](C)CO)C[C@@H](C)[C@@H](CN(C)S(=O)(=O)c1ccccc1)O2`: the relative growth is inactive: 1.02.
The figure for `Cc1noc(C)c1S(=O)(=O)N(C)C[C@H]1Oc2ccc(NC(=O)Cn3cnnn3)cc2CC(=O)N([C@@H](C)CO)C[C@@H]1C` is inactive: 1; for `CN[C@H](CC(C)C)C(=O)N[C@H]1C(=O)N[C@@H](CC(N)=O)C(=O)N[C@H]2C(=O)N[C@H]3C(=O)N[C@H](C(=O)N[C@H](C(=O)O)c4cc(O)cc(O)c4-c4cc3ccc4O)[C@H](O)c3ccc(c(Cl)c3)Oc3cc2cc(c3O[C@@H]2O[C@H](CO)[C@@H](O)[C@H](O)[C@H]2O[C@H]2C[C@](C)(N)[C@H](O)[C@H](C)O2)Oc2ccc(cc2Cl)[C@H]1O` it is inactive: 0.749.
